Out of some 48,000 compounds screened, about 120 (0.25%) were called active. Not shown: some 4% with an inconclusive outcome. Calls follow the shape of the dose curve; as a rule, active = well fitted activation curve with a large enough effect; inconclusive = small, poorly fitted or top-dose-only effect, or another doubt; inactive = no such curve, though single readings can be large or run the other way. The list shows a part of the results.
Experiment: Primary qHTS for Identification of Small Molecule Activators of Huntingtin-Antisense Promoter Activity; also: nearly all actives have a fitted effect of over 55% in size
Details: HEK293 HTT-AS promoter firefly luciferase reporter, 24 h; series mostly up to 57.5 µM; activity change, positive = activation: at the top concentration
Method in brief: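 Quantitative HTS used concentration series of up to 57.5 uM final on HEK293 luciferase reporter cells, 24 h at 37 degrees C. Readout was Dual-Glo firefly luminescence.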

Activity change, positive = activation, inactive:
Cc1cccc(C)c1Nc1sc(C(=O)c2ccccc2)c(N)c1S(=O)(=O)c1ccccc1 -40.5%, COc1ccc2nc3sc(C(=O)NCCc4ccc(Cl)cc4)cc3cc2c1 -9.29%, COc1cc(OC)c(NC(=O)C2=C(C)C(=O)OC23CCN(C(C)=O)CC3)cc1Cl -5.97%, CCc1cccc(NC(=O)C2CCN(S(=O)(=O)c3ccc(Br)s3)CC2)c1 -37.3%, Cc1ccc(-n2ncc3c(=O)n(Cc4cccc(Cl)c4)cnc32)cc1C -4.2%, O=C(NCc1ccccc1)c1cccn1-c1nnc(N2CCCCC2)s1 -12.5%, CC1CC(OC(=O)c2ccccc2O)CC(C)(C)C1 (stereo unspecified) -1.6%, COc1ccc(Cn2c(C(=O)O)c(CNCc3ccco3)c3ccc(C)cc32)cc1 -25.8%, Cc1ccc(C)c(NC(=O)Nc2cc3c(cc2N2CCCCC2)n(C)c(=O)n3C)c1 -43.3%, COCCNC(=O)CSc1c(C)cnc2c1c(=O)n(C)c(=O)n2C -3.91%, Cc1ccc(NC(=O)Cn2cnc3c(oc4ccccc43)c2=O)cc1Cl -10.8%, COc1ccc(NC(=O)CCCOc2cc(=O)n(C)c3ccccc23)c(OC)c1 14.2%, CCCn1c2ccccc2c2cnn(CC(=O)NCCc3ccc(S(N)(=O)=O)cc3)c(=O)c21 -20.3%, Cn1c(NCc2cccc(Cl)c2)nc2ccccc21 -8.13%, COc1cc(C(=O)NCCc2sc(-c3ccc(C)cc3)nc2C)cc(OC)c1OC -21.7%, CC1CCN(C(=O)Cn2cc(SCC(=O)NCc3ccc(F)cc3)c3ccccc32)CC1 -24.3%, CCCCc1ccc(C(=O)c2c(N)c(C(=O)Nc3cccc(OC)c3)c3ccccn23)cc1 8.15%, Cc1nnc(N2C(=O)c3oc4ccccc4c(=O)c3C2c2cccc(OCCC(C)C)c2)s1 (stereo unspecified) -9.86% [at 11.5 µM, percent change from vehicle, -100% = no light], COCCCNC(=O)c1c(NC(=O)Cc2coc3cc(C)ccc23)sc2c1CCCC2 -24.3%, COc1ccc(C(=O)/C=C/c2cn(CC(O)CN3CCCCCC3)c3ccccc23)cc1OC (stereo unspecified) -26.4%, Cc1ccc(C(=O)c2oc3ccccc3c2NC(=O)COc2ccccc2C)cc1 2.89%, COc1ccc(NC(=O)CSc2nc3ccccc3nc2N2CCOCC2)c(OC)c1 -13.7%, Cc1ccc(-c2noc(-c3ccc(N4CCOCC4)c([N+](=O)[O-])c3)n2)cc1 -31.9%, Cc1ccccc1CN1C(=O)c2ccccc2S(=O)c2ccc(C(=O)N3CCOCC3)cc21 (stereo unspecified) -26.5%, Cn1c(=O)c2cc(C(=O)NCCCN3CCN(c4ccc(F)cc4)CC3)sc2c2ccccc21 -17.9%, COc1ccc(-c2nc3ccccc3o2)cc1NC(=O)COc1cc(C)cc(C)c1 21.5%, Cc1oc2c(c1C(=O)Nc1ccc(OC(F)(F)F)cc1)C1=NCCN1C=N2 -10%, COc1ccc(NS(=O)(=O)c2cnc(N)nc2)cc1Cl -19.7%, COc1ccc(NC(=O)CCS(=O)(=O)c2cc3c4c(c2)CCN4C(=O)CC3)c(OC)c1 -3.94%, COc1ccc(C(=O)c2c(N)c(C(=O)Nc3ccccc3Cl)c3ccccn23)cc1 -8%, O=C(COc1ccc2oc3c(c2c1)CCCC3)Nc1cccc(Br)c1 -9.01%, Cc1cc(=O)[nH]c2nnc(SCC(N)=O)n12 5%, CCOC(=O)CSc1nc2sc3c(c2c(=O)n1Cc1ccccc1)CC(C(C)C)OC3 (stereo unspecified) -3.85%, CCC(C)NC(=O)CCCn1c(=O)c2cccn2c2ccccc21 (stereo unspecified) 12.4%, CCC(C(=O)NC1CCCCC1)n1c(SCc2ccccc2F)nc2ccncc21 (stereo unspecified) -19.5%, COCCNC(=O)CN1C(=O)COc2ccc(S(=O)(=O)N3CCCCCC3)cc21 -4.59%, CCc1ccc(NC(=O)CSc2ccc(-c3sc(-c4ccccc4)nc3C)nn2)cc1 -1.27%, Cc1ccccc1C(=O)Nc1cccc(NC(=O)c2ccc(C(C)(C)C)cc2)c1 10.9%, CCN(Cc1ccccc1)c1nc2c(S(=O)(=O)c3ccccc3)nnn2c2ccc(Cl)cc12 -22.7%, Cc1nn(C(C)C(=O)NCCc2ccccc2)c(=O)c2c1sc1ccccc12 (stereo unspecified) -30.5%, Cc1ccccc1CNC(=O)CN1C(=O)CCCc2ccccc21 -5.48%, N[C@H](Cc1c[nH]c2ccccc12)C(=O)O 0.171%, COc1ccc(CCNC(=O)CCCn2c(=O)c3ccccc3n(CC(=O)Nc3ccccc3C)c2=O)cc1OC -11.8%, Cc1ccc(C2CC(=O)N(Cc3ccc(F)cc3)c3c2c(C)nn3-c2nc(C)cc(C)n2)cc1 (stereo unspecified) -16.7%, COc1ccc(Cn2c(SCC(=O)N3CCN(c4ccc(F)cc4)CC3)nc3ccccc32)cc1 -28.5%, O=C(CN1CCN(Cc2ccc(F)cc2)C1=O)NCc1ccc(F)cc1 -5.34%, O=C(COc1ccccc1)N(Cc1cccnc1)c1nc2c(F)cc(F)cc2s1 -4.09%, Cc1sc(C2C(C#N)=C(N)N(c3ccc(Cl)cc3)C3=C2C(=O)CCC3)cc1CN1CCOCC1 (stereo unspecified) -11.4%, CC1CCN(S(=O)(=O)c2ccc3c(c2)N(CC(=O)NCCCOC(C)C)C(=O)CO3)CC1 -16.7%, COCCNC(=O)Cn1c(-c2cccs2)cc2cc(Cl)ccc21 -36.2%, CCc1ccccc1NC(=O)CN(c1ccccc1OC)S(=O)(=O)c1ccc(C)cc1 -34.6%, Cc1ccsc1CN(C(=O)COc1ccccc1Cl)C1CCS(=O)(=O)C1 (stereo unspecified) -9.8%, N#Cc1nc(-c2ccc(COc3ccc(Cl)cc3)o2)oc1N1CCCCC1 -23.6%, COc1ccccc1N1CCN(c2nc3c(S(=O)(=O)c4ccccc4)nnn3c3ccc(Cl)cc23)CC1 5.27%, CCOC(=O)c1scc(-c2ccccc2)c1S(=O)(=O)Nc1ccccc1OC -35.8%, COc1ccc(CNS(=O)(=O)c2ccc(C(=O)N(C)C)s2)cc1 -8.23%, O=C1c2[nH]nc(-c3ccccc3O)c2C(c2cccc(OCc3ccccc3)c2)N1CCCO (stereo unspecified) -43.9%, Fc1ccc(N2CCN(Cc3nnc(-c4ccccc4Cl)o3)CC2)cc1 -24.7%, COc1ccc(Cn2c(SCc3ccc(C(=O)NC4CCCCC4)cc3)nc3ccncc32)cc1 -29.8%, CCc1cccc(C)c1Nc1c(-c2ccc(F)cc2)nc2sccn12 -19.2%, CCOc1ccc(NC(=O)CSc2ncc(S(=O)(=O)c3ccc(F)c(C)c3)c(=O)[nH]2)cc1 -9.23%, Cc1ccc(CNc2nc(-c3ccco3)nn2C(=O)c2ccccc2[N+](=O)[O-])cc1 23.8%, CCc1ccc(C(c2ccccc2)c2c(C)[nH]c3ccccc23)s1 (stereo unspecified) -24.8%, Cc1cc(C)c(NC(=O)CSc2nc3ccccc3c3nc(-c4ccccc4)nn23)c(C)c1 8.92%, Cc1cccc(CNC(=O)c2ccc3c(c2)N(C)CCS3)c1 -11.2%, CC(C)(C)c1cc(C=O)cc(C(C)(C)C)c1O -1.07%, COc1ccc(NC(=O)Cn2c(=O)n(CCCC(=O)NCc3ccccc3Cl)c(=O)c3ccccc32)c(OC)c1 -32%, Cc1ccccc1CNC(=O)Cn1nc(C)c2nn(-c3ccc(Cl)cc3)c(C)c2c1=O -36.3%, CCOC(=O)c1sc2ccccc2c1S(=O)(=O)Nc1cc(OC)ccc1OC -17.9%, COc1ccc(CNCc2c(C(=O)O)c(C)n(Cc3ccccc3C)c2C)cc1OC -5.48%, Cc1ccc(C)c(N2CCN(S(=O)(=O)c3ccc4[nH]c5c(c4c3)CCCC5)CC2)c1 -23.4%, COc1ccc(N2CCN(c3ncccc3-c3nc(-c4ccccc4C)no3)CC2)cc1 -9.09%, CCc1ccc(NC(=O)Cn2c(=O)c3cccn3c3ccccc32)cc1 -43.6%, CCc1cccc(C)c1NC(=O)CN1CCN(Cc2ccccc2Cl)S1(=O)=O -23.2%, O=C(Nc1ccc(-c2nc3cc(Cl)ccc3o2)cc1)c1cc(Br)ccc1Cl 5.69%, CCN(C(=O)CSc1nc2ccccc2c2nc(CCn3c(C)nc4ccccc43)nn12)c1cccc(C)c1 -2.93%, COc1cc(C(=O)NC2(C(F)(F)F)C(=O)NC(C)=C2C#N)cc(OC)c1OC (stereo unspecified) 4.64%, CCN(CC)S(=O)(=O)c1ccc2c(c1)N(CC(=O)N1CCN(c3cccc(C)c3)C(C)C1)C(=O)CO2 (stereo unspecified) -18.2%, Cc1cccc(NC(=O)CCn2cnnn2)c1 -13.4%, COc1ccc(-c2csc3nc(-c4ccc(Cl)cc4)oc(=O)c23)cc1 -0.671%, CC(=O)c1ccc(N2CCN(C(=O)Nc3ccc(C)cc3)CC2)cc1 -23.7%, Cc1ccc(Nc2c(-c3ccc(N4CCOCC4)cc3)nc3ccc(C)cn23)cc1 -11.6%, Cn1c(=O)oc2cc(S(=O)(=O)NC(CC(=O)O)c3cccc(Br)c3)ccc21 (stereo unspecified) -6.03%, COc1ccc(NC(=O)CSc2nnc(N)s2)cc1 5.28%, COc1ccc(N2CC(C(=O)NCCS(=O)(=O)N3CCN(c4ccccc4)CC3)CC2=O)cc1 (stereo unspecified) 10.5%, CC(C)OCCCNC(=O)c1cn(C)c2ccc(S(=O)(=O)N(C)C3CCCCC3)cc2c1=O -0.187%, O=C(CCCN1CCN(c2ccccn2)CC1)c1ccc(F)cc1 -19.7%, COc1ccc(S(=O)(=O)N2CCC(Oc3cccc(C(F)(F)F)c3)CC2)cc1OC -5.38%, CCNc1cc(NC2CCC(O)CC2)nc(Nc2ccc3c(ccn3Cc3ccccc3)c2)n1 (stereo unspecified) -21.1%, CCc1cccc(NC(=O)c2cnc(N3CCOCC3)c3ccccc23)c1 -29.6%, Cc1c(C(=O)N2CCCC2)oc2c1-c1nn(CC(=O)NCc3ccc(OC(C)C)cc3)cc1CC2 -44.9%, CN(CC(=O)Nc1ccc(OC(F)(F)F)cc1)S(=O)(=O)c1ccc2c(c1)CCC(=O)N2 -34%, Cc1ccc2occ(-c3cc(-c4ccccc4)nc4c3COc3ccccc3-4)c(=O)c2c1 -3.29%, CCOC(=O)c1cc(-c2ccccc2)n(CCCC(=O)Nc2ccc(C)c(Cl)c2)c1C -27.9%, Cc1ccc(C)c(NC(=O)CSc2nc3nccnc3c(=O)n2CCc2c[nH]c3ccccc23)c1 -24.7%, Cc1ccc(-n2c(=O)c3c(C)c(C(=O)N(C)C)sc3n(CC(=O)N(C)c3ccccc3)c2=O)cc1C -6.95%

Source: PubChem BioAssay AID1508624 (National Center for Advancing Translational Sciences (NCATS), 2021)
